Structures can show the parent of a compound that is named as a salt.
How the values were obtained:
Type in all cases: biochemical
recombinant PRL-3 = biological target: T1, recombinant PRL-3 (Homo sapiens, UniProt O75365); experiment: In vitro phosphatase assay (DiFMUP hydrolysis), PRL-3; note: test concentration or dose not given here
T1 construct: 6xHis (N, cleaved yes); made in house; host or cells: E. coli One Shot BL21 Star

recombinant PRL-2 = biological target: T2, recombinant PRL-2 (Homo sapiens, UniProt Q12974); experiment: In vitro phosphatase assay (DiFMUP hydrolysis), PRL-2;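 note: PRL-2 activity read as DiFMUP hydrolysis after 20 min at room temperature with drug, enzyme first pre-reduced at 4 °C for 20 min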
T2 construct: 6xHis (N, cleaved yes); made in house; host or cells: E. coli One Shot BL21 Star
T2 sequence (Q12974 1-167): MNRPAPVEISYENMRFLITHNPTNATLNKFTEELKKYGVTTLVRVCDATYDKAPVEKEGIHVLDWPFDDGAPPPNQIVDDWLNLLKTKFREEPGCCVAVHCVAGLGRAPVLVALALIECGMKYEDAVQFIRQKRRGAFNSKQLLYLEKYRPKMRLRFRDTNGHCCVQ

recombinant PRL-1 = biological target: T3, recombinant PRL-1 (Homo sapiens, UniProt Q93096); experiment: In vitro phosphatase assay (DiFMUP hydrolysis), PRL-1; note: test concentration or dose not given here
T3 construct: 6xHis (N, cleaved yes); made in house; host or cells: E. coli One Shot BL21 Star
T3 sequence (Q93096 1-173): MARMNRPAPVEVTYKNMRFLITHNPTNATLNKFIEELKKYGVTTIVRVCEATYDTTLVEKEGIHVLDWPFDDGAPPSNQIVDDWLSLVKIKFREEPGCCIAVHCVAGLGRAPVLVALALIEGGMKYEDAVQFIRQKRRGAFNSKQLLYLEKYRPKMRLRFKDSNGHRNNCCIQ

T1 sequence (O75365 whole entry): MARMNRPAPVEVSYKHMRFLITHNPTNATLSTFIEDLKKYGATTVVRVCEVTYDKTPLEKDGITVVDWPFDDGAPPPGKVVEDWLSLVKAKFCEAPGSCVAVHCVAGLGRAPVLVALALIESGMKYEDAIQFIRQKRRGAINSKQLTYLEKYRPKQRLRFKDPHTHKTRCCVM

Compound | % Phosphatase Activity (compared to DMSO) PRL-3 (recombinant PRL-3) [%] | % Phosphatase Activity (compared to DMSO) PRL-2 (recombinant PRL-2) [%] | % Phosphatase Activity (compared to DMSO) PRL-1 (recombinant PRL-1) [%]
Clc1ccc(CSC(Cn2ccnc2)c2ccc(Cl)cc2Cl)cc1 (stereo not drawn) [Sulconazole Nitrate] | 79 | 110 | 97
CC(C)(C)c1ccc(C(=O)CCCN2CCC(OC(c3ccccc3)c3ccccc3)CC2)cc1 [Ebastine] | 97 | 128 | 115
CC(C)(C)CC(C)(C)c1ccc(OCCOCC[N+](C)(C)Cc2ccccc2)cc1 [Benzethonium Chloride] | 80 | 103 | 99
CCCCCCCCCCCCCCCC[n+]1ccccc1 [Cetylpyridinium Chloride] | 85 | 91 | 97
CN1CCC[C@@H]1CCO[C@](C)(c1ccccc1)c1ccc(Cl)cc1 [Clemastine Fumarate] | 112 | 119 | 91
Clc1ccc2c(c1)CCc1cccnc1C2=C1CCNCC1 [Desloratadine] | 100 | 124 | 110
Br.CN1[C@@H]2CC[C@H]1C[C@@H](OC(=O)C(O)c1ccccc1)C2 (stereo partly drawn) [Homatropine Bromide] | 83 | 119 | 109
CCN(Cc1ccncc1)C(=O)C(CO)c1ccccc1 (stereo not drawn) [Tropicamide] | – | 92 | –
CCN(CC)CCOC(=O)C1(C2CCCCC2)CCCCC1 [Dicyclomine HCl] | – | 90 | 87
Cc1ccccc1C(OCCN(C)C)c1ccccc1 (stereo not drawn) [Orphenadrine Citrate] | 97 | 106 | 92

Source: article PMC8119466, “A screen of FDA-approved drugs identifies inhibitors of protein tyrosine phosphatase 4A3 (PTP4A3 or PRL-3)” (Scientific Reports, 2021)
